# The supplement of paper PMC3334620
# Whole data set: some 33,000 sequences, median “E-score (-0.5 to 0.5)” near -0.041, cut for the highest 2% near 0.37. Some of the results follow.
# Target: T1, Ecm22 (UniProt Q05958)
# T1 sequence: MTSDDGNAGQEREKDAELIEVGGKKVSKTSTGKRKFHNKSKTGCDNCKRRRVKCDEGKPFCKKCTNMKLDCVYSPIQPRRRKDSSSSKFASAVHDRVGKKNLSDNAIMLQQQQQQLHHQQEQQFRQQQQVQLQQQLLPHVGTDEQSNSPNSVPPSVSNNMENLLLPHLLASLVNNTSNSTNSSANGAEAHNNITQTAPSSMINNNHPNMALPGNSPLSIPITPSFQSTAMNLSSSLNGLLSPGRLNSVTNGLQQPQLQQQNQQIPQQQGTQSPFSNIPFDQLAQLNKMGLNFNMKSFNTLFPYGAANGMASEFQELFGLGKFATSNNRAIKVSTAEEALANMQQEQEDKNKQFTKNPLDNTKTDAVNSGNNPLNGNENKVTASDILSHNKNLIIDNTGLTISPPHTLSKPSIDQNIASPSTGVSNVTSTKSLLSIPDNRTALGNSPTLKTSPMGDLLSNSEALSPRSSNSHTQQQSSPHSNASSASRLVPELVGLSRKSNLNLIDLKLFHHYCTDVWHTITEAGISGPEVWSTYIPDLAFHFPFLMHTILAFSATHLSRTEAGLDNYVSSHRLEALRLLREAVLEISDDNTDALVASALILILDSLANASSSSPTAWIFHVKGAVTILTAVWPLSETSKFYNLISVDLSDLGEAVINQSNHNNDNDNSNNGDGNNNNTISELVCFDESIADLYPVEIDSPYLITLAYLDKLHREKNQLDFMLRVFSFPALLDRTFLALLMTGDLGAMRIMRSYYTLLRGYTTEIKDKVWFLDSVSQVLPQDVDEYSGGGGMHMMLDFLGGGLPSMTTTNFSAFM
# Assay: PBM E-score (8-mer binding enrichment) (E-score (-0.5 to 0.5)); higher = stronger / more preferred TF binding; most listed sequences are background and not binding sites
# Details: protein concentration: 200 nM; construct: GST-full length
# Protocol: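 Universal 'all 10-mer' protein binding microarrays (Agilent AMADID 015681) probed with GST-tagged S. cerevisiae TFs (full-length or DBD) made by in vitro transcription/translation (PURExpress), about 100-200 nM. Bound TF was detected with fluorescent anti-GST. Each ungapped 8-mer (which stands for itself and its reverse complement) is scored by the PBM enrichment score (E-score), a modified Wilcoxon-Mann-Whitney statistic from -0.5 to +0.5, computed with the Universal PBM Analysis Suite. Scale: above 0.35 generally sequence-specific binding.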
row,Sequence,PBM E-score
1,AATGTGCC,-0.234
2,GGGAGACA,-0.222
3,GTGTCGCA,0.162
4,CCCGCGTC,0.034
5,TCCTTTAA,-0.113
6,GAGTAGCC,-0.0661
7,CGAGTGAC,0.292
8,ATATAATG,-0.0445
9,ACTGTGGG,-0.221
10,AGATTGCA,-0.151
11,CCGGGCAA,-0.117
12,CGTAGATA,0.103
13,GCGACACA,0.113
14,CACCAGTC,-0.0627
15,ATCGTAGG,0.144
16,TACTCGAA,0.187
17,AAAGCATC,0.0748
18,AAGTAAGG,-0.0906
19,AGTTCCCC,-0.0578
20,AATCGACC,-0.0105
21,ATGGGGAA,-0.0102
22,GTGATCAC,-0.0665
23,AGTGAAGC,-0.127
24,AAGGGGGC,-0.169
25,AGCTGAAC,-0.00484

row,Sequence,PBM E-score
1,AAATCTGG,0.11
2,GGTAAACA,0.129
3,AACGGTAT,0.166
4,CGCACAGC,0.0507
5,CGCGGATC,0.00423
6,AATGGGTA,0.186
7,GCCCCTCC,-0.0475
8,CCCAGTAC,-0.0775
9,CCTGCATA,-0.254
10,AGGACTTA,-0.23
11,GCCTTTAA,-0.198
12,AATTCGGC,-0.141
13,CGTCATAC,0.227
14,GAGAGAGA,0.00674
15,GCTTCGAA,0.0639
16,AGACAACT,-0.17
17,CTGCGCGA,0.0164
18,ATATGTGG,-0.274
19,CGATTAGC,0.259
20,AACGGATC,0.234
21,ATCATTCA,0.0374
22,CGCTAGAG,0.00533
23,CTTCAGGC,-0.272
24,CAAGGGTG,-0.244
25,GAGGTGTA,-0.0982

row,Sequence,PBM E-score
1,CTACCGTC,-0.12
2,CTAGAGAG,-0.2
3,GTGTAAGA,-0.11
4,GGAACGAA,0.489
5,ACCCCTTA,-0.137
6,CGGGTTAC,0.231
7,ACTTTGCT,-0.0924
8,TAAGGTAA,0.0729
9,GCTGCAGC,-0.186
10,GCGGATTA,0.00231
11,AGGAAGAA,-0.156
12,AGCTTTAC,0.111
13,ACGGGGAC,0.0581
14,GAAAGAAC,-0.0474
15,CGTTGACA,0.139
16,GCCCAGCA,-0.182
17,CAGAGACG,-0.00646
18,AGTGAGAG,-0.252
19,ACTACCAA,0.0258
20,AGATAACC,-0.137
21,ACCGCGGA,0.0811
22,ATCTTCCA,-0.199
23,GCCTGTAA,-0.209
24,ATATCTAC,0.0491
25,CGGTTGTC,0.12

row,Sequence,PBM E-score
1,GCGACTAA,0.155
2,ATTACCTA,-0.0935
3,AGCTCGAC,0.0368
4,CCCAGGCC,-0.178
5,AGTTATAG,-0.238
6,GCCAGAAC,-0.0164
7,CTTGGCAC,-0.227
8,ACGTTTGA,0.157
9,ATATAGCC,-0.00324
10,CGGGTAGC,-0.0454
11,CTTGGCCA,-0.316
12,CACCAGCC,-0.0515
13,CTTTGACA,-0.148
14,ACGGATAC,0.227
15,TATAGCGA,0.237
16,GGGCCATA,-0.0499
17,CTTCGCAA,0.183
18,TCTCTTAA,0.118
19,AAACATGA,-0.0336
20,ACCGGTAG,-0.013
21,GATGGGTA,0.0221
22,AAAGTGGC,-0.0493
23,AATAATCG,0.0721
24,ATCAGGTC,0.113
25,GCTCATAA,0.0224

row,Sequence,PBM E-score
1,AGTGTCCC,-0.0455
2,CCGTCCCA,-0.311
3,ATGATAAT,0.0227
4,ATGCTCGA,-0.103
5,GGCCTGGA,-0.405
6,CACAAGTC,-0.11
7,CAAGCGTG,-0.087
8,TCTATACA,-0.084
9,GACTAAAC,-0.0495
10,CTGTACTC,-0.0433
11,CGACTGAA,0.163
12,ACCCCCCA,-0.296
13,CGCTCCGA,0.203
14,ACAATGGA,-0.0436
15,ACGCTTCC,-0.0671
16,GAAAGATA,-0.0171
17,GGTGGCCA,-0.312
18,AATCCGAC,0.104
19,AGTGGGCG,-0.167
20,CGTACTAA,0.341
21,GGTACCTA,-0.1
22,CGATTAGA,0.162
23,CCCACAGA,-0.187
24,GTGGTGGA,0.0768
25,CGGATAGA,0.219

row,Sequence,PBM E-score
1,ATCAGATA,0.0184
2,AGACTAGG,-0.128
3,AACCTCGT,0.323
4,ATCTTAGG,-0.238
5,AGGGAAAT,-0.142
6,CGGCAACC,-0.082
7,ACTACTTC,0.0171
8,CAGTCTAC,-0.164
9,GATATATA,0.179
10,CGCTATGC,0.00717
11,TGCTCTAA,-0.129
12,AGGCGCAG,-0.21
13,GGCTTCTA,-0.173
14,ACACCACC,-0.222
15,GCCATTCC,-0.238
16,ATTCTGTG,0.00651
17,GACCGCTA,0.0611
18,TAACATAA,0.0953
19,GGTATAAA,0.2
20,CCTTCATC,-0.0839
21,GAATGCTA,-0.0657
22,ATACGGTC,0.383
23,ATTGGTTC,-0.0563
24,ATTGCGCA,0.0363
25,GGACTCGA,-0.0322

row,Sequence,PBM E-score
1,TACCACGA,0.0887
2,CGAAGCTC,-0.0222
3,GATCGAGA,0.18
4,CAAAACCG,0.0779
5,CGGAATGA,-0.0548
6,AGACAGAG,-0.0916
7,ATGCAGCC,-0.129
8,AAGCGAGG,0.338
9,CGACACAC,0.257
10,CATTCCAG,-0.289
11,GGAACCCA,-0.147
12,AGTGTGGC,-0.0286
13,ATGTGGCC,-0.268
14,CATTGTTA,-0.0797
15,CTCTCTGA,-0.21
16,CTAACCGA,0.372
17,CCTTCGCG,0.0868
18,CATTATGG,-0.221
19,CGCATGGA,-0.0687
20,ATCTTGTC,-0.0519
21,GACTGGCA,-0.254
22,AGCAATCG,0.0827
